Reference: PubChem BioAssay AID485294 (National Center for Advancing Translational Sciences (NCATS), 2010)
Hit rate of the full screen: of about 370,000 compounds, about 150 (0.041%) were called active. This list was built around the results that the source calls inconclusive (neither active nor inactive); the mix of calls is not that of the screen. Calls come from the whole dose curve; as a rule, active = well fitted inhibition curve with a large enough effect; inconclusive = small, poorly fitted or top-dose-only effect; inactive = flat fitted curve, though single readings scatter. No potency is given beside an inconclusive call; the fits are too rough.

Molecular target: Beta-lactamase (Escherichia coli (strain K12)) (UniProt P00811)
Experiment: qHTS Inhibitors of AmpC Beta-Lactamase (assay with detergent); note: nearly all actives have a fitted effect of over 25% in size;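 for activity change, negative = inhibition: 0% = no-compound wells and -100% = no-enzyme wells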
Conditions: AmpC hydrolysis of nitrocefin, absorbance 480 nm, 0.01% Triton; activity change, negative = inhibition: at 114 µM (top of the series)
In short: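 AmpC (5.3 nM in the dispensed reagent) in 20 mM phosphate pH 7.0 with 0.01% (detergent screen) or 0.0001% Triton X-100 was preincubated with compounds for 15 min at room temperature. Nitrocefin was then added from an 800 uM solution, and hydrolysis was followed at 480 nm.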
Potency is the fitted concentration of half-maximal effect; tags give direction and shape of the fitted curve.

Chain of UniProt P00811 (P00811 whole entry, looked up): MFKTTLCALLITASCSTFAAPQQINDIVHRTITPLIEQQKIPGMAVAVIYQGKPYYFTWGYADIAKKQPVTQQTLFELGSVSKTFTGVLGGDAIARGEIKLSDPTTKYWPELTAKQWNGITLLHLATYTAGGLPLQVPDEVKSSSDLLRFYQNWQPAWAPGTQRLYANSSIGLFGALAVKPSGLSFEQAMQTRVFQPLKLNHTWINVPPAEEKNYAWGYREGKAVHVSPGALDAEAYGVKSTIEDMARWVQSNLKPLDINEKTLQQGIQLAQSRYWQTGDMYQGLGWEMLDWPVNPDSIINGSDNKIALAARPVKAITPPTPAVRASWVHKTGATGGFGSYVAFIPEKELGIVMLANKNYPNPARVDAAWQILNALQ

Structure (SMILES) | activity change, negative = inhibition | Potency
CCOC(=O)c1sc2c(c1C)c(=O)n(Cc1ccccc1)c(=O)n2CCN(C)C | inactive: -13.6% | –
CCOC(=O)Cc1csc(NC(=O)c2ccc(S(=O)(=O)N3CCCC3)cc2)n1 | – | inconclusive [inhibitor, full curve, poor fit]
O=C(COc1ccc(Br)cc1)N/N=C1\SCC(=O)N1c1ccc(F)cc1 | – | inconclusive [inhibitor, partial curve]
O=C1NC(=O)/C(=C/c2ccc(-c3cccc([N+](=O)[O-])c3)o2)S1 | inactive: -4.28% | –
CS(=O)(=O)CCC(C(=O)OCC(=O)c1ccc(Cl)cc1)N1C(=O)c2ccccc2C1=O (stereo unspecified) | – | inconclusive [inhibitor, full curve, poor fit]
COc1ccccc1N1CCN(Cc2ccc(SC)cc2)CC1 | – | inconclusive [inhibitor, full curve, poor fit]
COc1ccc(N2CC(C)Cn3c2nc2c3c(=O)n(CCc3ccccc3)c(=O)n2C)cc1 (stereo unspecified) | – | inconclusive [inhibitor, partial curve, poor fit]
O=C(COC(=O)CNC(=O)c1ccccc1F)Nc1cccc(S(=O)(=O)N2CCCCCC2)c1 | – | inconclusive [inhibitor, full curve, poor fit]
CCOc1ccc(NC(=O)CN(Cc2ccccc2)S(C)(=O)=O)cc1 | – | inconclusive [inhibitor, partial curve, poor fit]
COc1ccc(Cc2[nH]n3c(=O)cc(C(C)C)nc3c2-c2ccccc2)cc1 | inactive: -1.38% | –
Cc1ccc(CCC2C3=C(CCCC3=O)OC3=C2C(=O)CCC3)cc1 | – | inconclusive [inhibitor, single point]
O=C(COC(=O)c1ccc2c(c1)C(=O)N(CCc1ccccc1)C2=O)Nc1ccc(OC(F)F)cc1 | – | inconclusive [inhibitor, partial curve, poor fit]
CC(=O)c1cc(F)c(N2CCCC2)cc1C | – | inconclusive [inhibitor, partial curve, poor fit]
COC(=O)Cn1cc(C(=O)c2ccco2)c2ccccc21 | – | inconclusive [inhibitor, partial curve]
Nc1nnc(SCC(=O)Nc2ccccc2)s1 | – | inactive
O=C1COc2ccc(C(=O)c3ccccc3)cc2CN1 | – | inconclusive [inhibitor, partial curve, poor fit]
CCn1cc(S(=O)(=O)Nc2cc(C)ccc2F)cn1 | inactive: 1.57% | –
Cc1cc2sc3ccccc3c(=O)c2c(C)c1O | inactive: 4.07% | –
CCCOC(=O)/C(=C\C=C\c1ccco1)NC(=O)c1ccccc1 | inactive: 2.73% | –
CN1CCN(S(=O)(=O)c2ccc(Oc3cccc(C(F)(F)F)c3)nc2)CC1 | – | inconclusive [inhibitor, full curve, poor fit]
CCn1c(=O)cc(SCC(=O)NCc2ccccc2OC)c2ccccc21 | inactive: 0.0501% | –
CCCNC(=O)C1CCN(S(=O)(=O)c2ccc3c(c2)OCCO3)CC1 | – | inconclusive [inhibitor, full curve, poor fit]

Structure (SMILES) | activity change, negative = inhibition | Potency
Cc1cccc(C(=O)NC(=O)Nc2ccc(-c3cc(C(F)(F)F)nn3-c3ccccc3)cc2)c1 | inactive: 8.23% | –
COc1cc(CCC(=O)Nc2ccc(C)c(S(=O)(=O)N3CCCCCC3)c2)cc(OC)c1OC | – | inconclusive [inhibitor, partial curve, poor fit]
CCc1ccc(CNC(=O)c2cnc3sc(N4CCCCC4)nn3c2=O)cc1 | inactive: 1.9% | –
Cc1cc(=O)n2nc(N3CCC(C(=O)NCc4ccccc4)CC3)sc2n1 | – | inactive
COC(=O)c1ccccc1NC(=O)CN1CCN(C(=O)c2ccco2)CC1 | – | inconclusive [inhibitor, full curve]
COc1cc(/C=C/CN2CCC(CO)(CC3CCCCO3)CC2)ccc1O (stereo unspecified) | inactive: 4.11% | –
N=c1c(C(=O)NCc2ccc(F)cc2)cc2c(=O)n3ccccc3nc2n1CCCN1CCOCC1 | – | inconclusive [inhibitor, full curve]
Cn1c(N)c(C(=O)COC(=O)c2cc(-c3ccco3)nc3ccccc23)c(=O)n(C)c1=O | – | inconclusive [inhibitor, partial curve, poor fit]
CCc1cc2c(=O)c(-c3ccon3)c(N)oc2cc1OC | – | inconclusive [inhibitor, full curve, poor fit]
CS(=O)(=O)N(CCC#N)Cc1ccco1 | – | inconclusive [inhibitor, partial curve, poor fit]
CCOc1ccccc1NC(=S)NCCc1ccccc1 | inactive: 9.05% | –
Cc1c(CCC(=O)NC2CC2)c(=O)oc2c(C)c(O)ccc12 | – | inconclusive [inhibitor, full curve, poor fit]
Cc1ccc(OCCN2CCN(C)CC2)c([N+](=O)[O-])c1 | – | inconclusive [inhibitor, single point]
O=C(Cc1n[nH]c(=O)c2ccccc12)NC(c1ccccc1)c1ccccc1 | inactive: -2.93% | –
FCCCOc1ccc(-c2nccc(-c3ccc(Cl)cc3)n2)cc1 | inactive: 4.79% | –
CCC(C)n1c(=O)c(C(=O)Nc2ccccc2S(N)(=O)=O)c(O)c2ccccc21 (stereo unspecified) | inactive: -11.4% | –
Cc1ccc(OCC(=O)N/N=C/C=C/c2ccco2)cc1C | – | inconclusive [inhibitor, full curve, poor fit]
Cc1cc(NC(=O)CSc2ccc3nnc(-c4ccccn4)n3n2)no1 | inactive: -8.93% | –
CCOc1ccc(C(C)=O)cc1N1C(=O)C2C3C=CC(C3)C2C1=O (stereo unspecified) | – | inconclusive [inhibitor, single point]
COc1ccc(O[C@H]2C=C[C@@H](c3ccccc3)O[C@@H]2CO/N=C(\C)CCC(=O)OC[C@H]2O[C@H](c3ccccc3)C=C[C@@H]2Oc2ccc(OC)cc2)cc1 | – | inconclusive [inhibitor, partial curve, poor fit]
Cc1ccc(C(=O)Nc2ccc3c(c2)C(=O)N(C)C3=O)c(C)c1 | – | inconclusive [inhibitor, full curve]
CCCCOc1ccc(C2C3CN(C(=O)OCC)CC=C3C(C#N)=C(N)C2(C#N)C#N)cc1OC (stereo unspecified) | – | inconclusive [inhibitor, single point]

Structure (SMILES) | activity change, negative = inhibition | Potency
Cc1nn(C)cc1CNC(=O)/C=C/c1cnn(C)c1 | – | inconclusive [inhibitor, partial curve]
COc1ccc2[nH]c(=O)c(CNc3ccccc3OC)cc2c1 | inactive: -0.182% | –
OCCCNCc1cccc2ccccc12 | – | inconclusive [inhibitor, full curve, poor fit]
O=C(COc1ccccc1)NCCSc1ccccc1 | – | inconclusive [inhibitor, full curve, poor fit]
CCN(CC)S(=O)(=O)c1cc(NC(=O)CNc2cccc(S(=O)(=O)N3CCOCC3)c2)ccc1C | – | inconclusive [inhibitor, single point]
N#Cc1c(NC(=O)CSc2nnc(-c3ccccc3)o2)sc2c1CCCC2 | – | inconclusive [inhibitor, partial curve, poor fit]
COc1ccc(C2/C(=C(\O)c3cc(C)ccc3C)C(=O)C(=O)N2CCN(C)C)cc1OC (stereo unspecified) | – | inconclusive [inhibitor, full curve, poor fit]
Cc1ccc2c(c1)N(C(=O)CCC(=O)NCCCN1CCOCC1)CCO2 | – | inconclusive [inhibitor, partial curve]
Cc1c(NS(=O)(=O)c2ccc3c(c2)Cc2ccccc2-3)c(=O)n(-c2ccccc2)n1C | inactive: 5.21% | –
COc1cccc(-c2nc(CS(=O)(=O)CC(=O)Nc3cc(C)ccc3C)c(C)o2)c1 | – | inconclusive [inhibitor, full curve, poor fit]
CC(C)(C)NCc1cccn1-c1sc2c(c1C#N)CCCC2 | – | inconclusive [inhibitor, full curve, poor fit]
CSc1ccc(Cl)c(C(=O)N2CCN(c3ncccn3)CC2)c1 | – | inconclusive [inhibitor, full curve, poor fit]
CC(=O)Nc1ccc(NC(=O)CSc2ccc(-c3ccc4c(c3)OCO4)nn2)cc1 | – | inconclusive [inhibitor, full curve]
CCCNC(=S)N1CCN(c2nc(-c3ccc(C)cc3)cs2)CC1 | – | inconclusive [inhibitor, full curve]
CCN(CC)Cc1c(O)ccc2c(=O)c(-c3ccc(Cl)cc3)coc12 | – | inconclusive [inhibitor, partial curve, poor fit]
C=C(C)CNC(=S)/N=c1\scc(C)n1CC | – | inconclusive [inhibitor, partial curve, poor fit]
O=c1cc(CN2CCN(c3cccc(Cl)c3)CC2)c2cc(O)c(-c3ccccc3)cc2o1 | – | inconclusive [inhibitor, single point]
Cc1ccc2c(c1C)NC(=O)C2(O)CC(=O)c1ccc2c(c1)OCO2 (stereo unspecified) | – | inconclusive [inhibitor, single point]
CC(C)(C)C1CCc2sc(C(=O)NNC(=O)CCl)cc2C1 (stereo unspecified) | inactive: -5.25% | –
COc1ccc(CSc2nnnn2-c2ccc(C(N)=O)cc2)cc1[N+](=O)[O-] | inactive: 0.118% | –
CC1Cc2ccccc2N1C(=O)CSc1nnc(-c2ccc(S(=O)(=O)N3CCCC3)cc2)o1 (stereo unspecified) | – | inconclusive [inhibitor, full curve, poor fit]
Nc1nc(SCC(=O)Nc2cccc(Oc3ccccc3)c2)n[nH]1 | – | inconclusive [inhibitor, full curve, poor fit]
